The record followed here is US9399028B2, “Treatment of drug resistant cancer” (ROCKEFELLER UNIVERSITY (THE), priority 2012, dated 2016).

For assay [1], the system named is human melanoma cells (MeWo, MeWo-LM2, HT-144, SK-Mel-2, SK-Mel-334.2). As to the kind of experiment: Trans-well matrigel cell invasion assay, melanoma cells. The assay is classed as cell-based. The settings on record: 1 μM for 72 hours, compared with lower potency LXR agonists. The procedure: Cancer cells were serum-starved in 0.2% FBS DMEM-based media for 12 hours. Trans-well invasion chambers (354480, BD Biosciences, Bedford, Mass.) were pre-equilibrated prior to beginning the assay by adding 0.5 mL of starvation media to the top and bottom chambers. After 30 minutes, the media in the top chamber was removed, and 0.5 mL of media containing 1×10^5 cancer cells was added into each matrigel-coated trans-well insert and incubated at 37° C. for 24 hours. […] The basal side of each insert was imaged using an inverted fluorescence microscope (Zeiss Axiovert 40 CFL) at 5× magnification, taking three representative images for each insert. The number of invaded cells was quantified using ImageJ (NIH). […]
The cells were then serum starved for 16 hours in 0.2% FBS media in the presence of each corresponding drug or DMSO. […] Meanwhile, cancer cells were trypsinized and viable cells were counted using trypan blue. […] The basal side of each insert was imaged using an inverted fluorescence microscope (Zeiss Axiovert 40 CFL) at 5× magnification, and the number of DAPI-positive cells was quantified using ImageJ.

Assay [2] deals with B16F10 mouse melanoma cells. As to the kind of experiment: Subcutaneous B16F10 tumor growth in C57BL/6 mice. The assay is classed as in vivo. As to conditions: orally in chow after tumors reached 5-10 mm3.

`CC(C)(O)c1cn(-c2ccc(-c3cc(F)c(CO)c(S(C)(=O)=O)c3)cc2F)c(C(C)(C)c2c(Cl)cccc2Cl)n1` [Compound 12]: the “inhibition of cancer progression phenotypes (cell invasion, endothelial recruitment)” value in assay [1] was “more effective”. Moreover, the “melanoma primary tumor growth in vivo” value in assay [2] was “significantly inhibited”.
